Data from PubChem BioAssay AID485294 (National Center for Advancing Translational Sciences (NCATS), 2010).
The campaign covered roughly 370,000 compounds. About 150 (0.041%) were called active. The shares of active, inactive and inconclusive entries below differ from those in the screen. Calls come from the whole dose curve; as a rule, active = well fitted inhibition curve with a large enough effect; inconclusive = small, poorly fitted or top-dose-only effect; inactive = flat fitted curve, though single readings scatter. No potency is given beside an inconclusive call; the fits are too rough.

Biological target: Beta-lactamase (Escherichia coli (strain K12)) (UniProt P00811)
UniProt P00811, sequence (P00811 whole entry, looked up): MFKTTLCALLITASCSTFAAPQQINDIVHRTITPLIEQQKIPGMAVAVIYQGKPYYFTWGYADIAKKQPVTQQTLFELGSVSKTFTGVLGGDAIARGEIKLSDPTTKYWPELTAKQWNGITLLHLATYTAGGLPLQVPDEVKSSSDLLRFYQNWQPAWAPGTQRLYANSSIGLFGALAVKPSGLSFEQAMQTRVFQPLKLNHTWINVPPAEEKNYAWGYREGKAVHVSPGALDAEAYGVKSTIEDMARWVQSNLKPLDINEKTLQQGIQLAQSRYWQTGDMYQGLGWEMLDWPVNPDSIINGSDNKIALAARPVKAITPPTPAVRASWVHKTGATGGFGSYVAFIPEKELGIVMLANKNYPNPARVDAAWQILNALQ
Test: qHTS Inhibitors of AmpC Beta-Lactamase (assay with detergent); note: nearly all actives have a fitted effect of over 25% in size
Conditions: AmpC hydrolysis of nitrocefin, absorbance 480 nm, 0.01% Triton; series mostly up to 114 µM
Protocol: NIH Molecular Libraries Probe Production Network [MLPCN] NIH Chemical Genomics Center [NCGC] Assay Provider: Professor Brian Shoichet, UCSF Assay Overview: This aggregation profiling approach exploits the sensitivity of aggregate formation to detergent. Inhibition of b-lactamase is measured in the presence and absence of 0.01% Triton X-100. This particular assay had the prescence of 0.01% Triton X-100. See Pubchem assay "Promiscuous and Specific Inhibitors of AmpC Beta-Lactamase (assay without detergent)" for related screen. Compounds that inhibit only in the absence of detergent are considered likely promiscuous aggregators. A screen of 1,030 compounds was performed in Brian Shoichet's lab in 96-well format. AmpC activity was measured by following the absorbance at 480 nm. Nitrocefin is a chromogenic substrate: while nitrocefin is yellow (lmax 390 nm), the product of its hydrolysis is red (lmax 486 nm, 17,000 M-1). AmpC beta lactamase was provided by Shoichet Lab, UCSF.
Buffer: 20 mM phosphate buffer, pH 7.0 Triton X-100: No Detergent screen: 0.0001%, Detergent screen: 0.01%. Reagents/Controls: Buffer in columns 3 and 4 as negative control (no enzyme). 5.3 nM AmpC in columns 1, 2, 5-48. […] The plates were immediately transferred to and read every 20 seconds for 4 min on ViewLux (Perkin-Elmer) High-throughput CCD imager using 480 nm absorbance protocol. […]
Potency is the fitted concentration of half-maximal effect; tags give direction and shape of the fitted curve.

Row | SMILES | Potency
1 | CCCCCCc1c(C)c2ccc(OCC(=O)N[C@@H](Cc3ccccc3)C(=O)O)cc2oc1=O | inconclusive [inhibitor, single point]
